The structures appear in SMILES notation. Among all 43,000 compounds or so, about 200 (0.47%) were called active. Roughly 12% stayed inconclusive and do not appear here. Calls follow the shape of the dose curve; as a rule, active = well fitted cell-killing curve with a large enough effect; inconclusive = small, poorly fitted or top-dose-only effect, or effect the other way; inactive = flat fitted curve, though single readings scatter. The list shows a part of the results.

The record followed here is PubChem BioAssay AID1508642 (National Center for Advancing Translational Sciences (NCATS), 2021).
% is scaled to controls: 0 for no effect and ±100 for the full control effect.

A short description of this assay: Cell viability qHTS assay in S16 Pmp22-F2sN cells. Also: nearly all actives have a fitted effect of over 65% in size. The settings on record: S16 Pmp22-F2sN Schwann cells viability, CellTiter-Glo, 24 h; series mostly up to 57.5 µM; activity change, negative = cytotoxicity: at the top concentration. The essentials:
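Viability was measured by CellTiter-Glo luminescence (15 min, room temperature). This followed 24 h at 37 °C of compound exposure (23 nL pin transfer) in S16 Pmp22-F2sN Schwann cells, 500-1,000 per well.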
Take `Cc1nn(S(=O)(=O)c2ccc(F)cc2)c(C)c1S(=O)(=O)N1CCCCC1`: the “activity change, negative = cytotoxicity” value is inactive: 3.82%.
Next, `Cc1c(C(=O)Nc2cccc(C(F)(F)F)c2)oc2ccc(S(=O)(=O)N3CCC4(CC3)OCCO4)cc12`: inactive: -12.3%; `COc1ccc(NC(=O)CSc2c3c(nc4ccccc24)CCC3)cc1Cl`: inactive: 3.9%.
Next, `Cc1ccc2c(c1)N(C(=O)CCC(=O)Nc1ccc(F)cc1F)CC(C)O2` (centres undefined): inactive: 3.21%; `CCOC(=O)c1c(C)[nH]c(C)c1S(=O)(=O)N1CCC(C(=O)NCc2cccc(C)c2)CC1`: inactive: -25.4%; `O=C(Nc1ccc(-c2nc3ccccc3s2)c(O)c1)c1ccc(Br)cc1`: inactive: 0.458%.
Next, `CCc1ccccc1NC(=O)CSc1nc(C)c(C(=O)Nc2ccccc2)c(-c2ccc(Cl)cc2)c1C#N`: inactive: -24.4%; `O=C(NCCc1ccc(Cl)cc1)C(=O)NCC(c1ccc2c(c1)OCO2)N1CCOCC1` (centres undefined): inactive: -15.2%.
For the compound `O=C(Nc1nc2ccc(F)cc2s1)c1nc(SCc2ccccc2F)ncc1Cl`, the “activity change, negative = cytotoxicity” value is inactive: 0.316%.
The figure for `O=C(CN1C(=O)COc2ccc(S(=O)(=O)N3CCOCC3)cc21)Nc1ccc(F)c(Cl)c1` is inactive: 6.52%; for `COc1cc(OC)c(N(C)C(=O)c2cn(C)c(=O)c3cc(OC)c(OC)cc23)cc1Cl` it is inactive: -2.16%; for `O=C(Nc1nc2c(F)cc(F)cc2s1)c1ccc2c(c1)OCCO2` it is inactive: -3.33%.
As to `Cc1cc(S(=O)(=O)Nc2cc3c(cc2Cl)n(C)c(=O)c(=O)n3C)ccc1F`, the “activity change, negative = cytotoxicity” value was inactive: -9.85%.
The figure for `Cn1c(=O)c2cc(C(=O)N3CCN(c4cccc(C(F)(F)F)c4)CC3)sc2c2ccccc21` is inactive: 3.98%; for `O=C(Nc1cc(C(F)(F)F)ccc1Cl)c1cc(-c2cccs2)nc2ccccc12` it is inactive: 8.59%; for `Cc1cc(C)c(S(=O)(=O)NCCc2sc(-c3cccnc3)nc2C)c(C)c1` it is inactive: 3.91%.
Take `Cc1ccsc1CN(Cc1ccco1)C(=O)c1ccc(Cl)cc1`: the “activity change, negative = cytotoxicity” value was inactive: -9.04%.
Next, `CCOC(=O)c1cc(-c2ccc(OC)cc2)n(CCC(=O)NCc2ccccc2OC)c1C`: inactive: -4.93%; `Cc1ccc(C)c(N2CCN(S(=O)(=O)c3ccc(-c4cc(C(F)(F)F)on4)s3)CC2)c1`: inactive: -8.37%; `Cc1c(C(=O)Nc2ccc(F)cc2F)oc2ccc3c(c12)C(=O)CC(C)(C)O3`: inactive: 0.207%.
Next, `COc1ccc(CCNC(=O)c2cnc3ccc(C)cn3c2=O)cc1OC`: inactive: -0.78%; `Cn1ncc2c(NCc3ccc(Cl)cc3)ncnc21`: inactive: -3.54%; `COCCCNC(=O)c1cc(-c2ccc(OC)cc2)nc2n[nH]c(-c3ccc(Cl)cc3)c12`: inactive: -0.353%.
Next, `COc1cccc(CNC(=O)c2sc3nc4n(c(=O)c3c2C)CCC4)c1`: inactive: -6.95%; `Cc1ccc(CNC(=O)c2c(O)nc3ccccn3c2=O)cc1`: inactive: 1.33%; `Cc1ccc(Cn2c(=O)n(CC3CCC(C(=O)N4CCC(C)CC4)CC3)c(=O)c3sccc32)cc1` (centres undefined): inactive: 0.75%.
With `Cc1ccc(N(Cc2cccs2)C(=O)Nc2cccc(Cl)c2)cc1`, the “activity change, negative = cytotoxicity” value is inactive: 5.99%.
For the compound `Cc1c(Cl)cccc1NC(=O)NCc1c(-n2cccc2)sc2c1CCCC2`, the “activity change, negative = cytotoxicity” value was inactive: -1.67%.
The figure for `Cc1oc2c(c1C(=O)Nc1ccccc1Br)C1=NCCN1C=N2` is inactive: 21.4%; for `CCOc1ccccc1NC(=O)Cn1cnc2c1c(=O)n(C)c(=O)n2C` it is inactive: 14.3%; for `COc1ccc(N2CC3=C(C2=O)C(c2ccc(O)c(OC)c2)NC(=O)N3C)cc1` (centres undefined) it is inactive: 9.15%.
Next, `CCOC(=O)c1ccccc1NC(=O)c1cc2c(s1)-c1c(C)cccc1OC2`: inactive: 2.93%.
Regarding `CC(C)C(=O)Nc1nnc(S(=O)(=O)N2CCCCCC2)s1`, the “activity change, negative = cytotoxicity” value was inactive: 1.88%.
The figure for `O=C(C1COc2ccccc2O1)N1CCN(c2nc3c(F)cccc3s2)CC1` (centres undefined) is inactive: 1.14%.
The figure for `COc1ccc(N(CC(=O)NCc2ccccc2Cl)S(=O)(=O)c2c(C)[nH]c(=O)[nH]c2=O)cc1` is inactive: 3.98%; for `COCCNC(=O)C1CCC(CNS(=O)(=O)c2ccc3c(c2)CC(C)N3C(C)=O)CC1` (centres undefined) it is inactive: 4.88%.
Next, `COc1ccc(NC(=O)CSc2nnc(-c3ccc(OC)cc3)s2)cc1`: inactive: -11.7%; `COc1cccc(C(c2sc3nc(-c4ccco4)nn3c2O)N2CCOCC2)c1` (centres undefined): inactive: -5.37%; `Cc1ccc(Nc2nc3ccc(C)cc3nc2-n2nc(C)cc2C)c(C)c1`: inactive: 8.07%.
Consider `Cc1c(C(=O)Nc2cccc(F)c2)oc2c1-c1nn(Cc3c(F)cccc3Cl)cc1CC2`, for which the “activity change, negative = cytotoxicity” value is inactive: -3.49%.
Next, `COc1cc(C(CC(=O)Nc2ccc(Br)cn2)N2Cc3ccccc3C2=O)cc(OC)c1OC` (centres undefined): inactive: 0.921%; `Cc1nn(CC(=O)NCc2cccc(Br)c2)c(=O)c2c1sc1ccccc12`: inactive: -0.0621%; `Cc1cc(C)c(S(=O)(=O)NCCc2cc3cc(C)c(C)cc3[nH]c2=O)c(C)c1`: inactive: 9.76%.
Next, `O=S(=O)(NCCc1nnc2ccc(SCc3ccc(C(F)(F)F)cc3)nn12)c1ccccc1`: inactive: -14.1%.
Next, `CCOCCc1nn2c(=O)cc(COC(=O)c3ccccc3Br)nc2s1`: inactive: 20.6%; `O=C(NCCc1csc(-c2ccc(C(F)(F)F)cc2)n1)c1ccccc1Cl`: inactive: -3.65%; `N#C/C(=C\c1ccc(-c2ccc(Br)cc2)o1)C(=O)Nc1ccccc1O`: inactive: 9.91%.
Turning to `Cc1ccc(-n2ncc3c(N4CCN(Cc5ccccc5)CC4)ncnc32)cc1C`, the “activity change, negative = cytotoxicity” value is inactive: -2.63%.
The figure for `Cc1oc(-c2ccccc2F)nc1Cn1c(SCc2cccc(Cl)c2)nc2ccncc21` is inactive: -16.2%.
